In PubChem BioAssay AID1347417 (National Center for Advancing Translational Sciences (NCATS), 2020):
Hit rate of the full screen: of about 120,000 compounds, about 5,300 (4.4%) were called active. The inconclusive results got no clear call from the source; some entries with a clear call stand among them for comparison. Calls follow the shape of the dose curve; as a rule, active = well fitted inhibition curve with a large enough effect; inconclusive = small, poorly fitted or top-dose-only effect; inactive = no such curve, though single readings can be large or run the other way. Potencies of inconclusive entries are doubtful fits and often do not repeat.

experiment: qHTS Primary assay for Inhibitors of Plasmodium falciparum Dd2 growth in vitro; also: nearly all actives have a fitted effect of over 65% in size; details: P. falciparum Dd2 growth, SYBR Green, 72 h; series mostly up to 28.9 µM
In short: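 Readout: SYBR Green fluorescence, 485 nm excitation, 535 nm emission, after ~16 h lysis at 37C. Before that, Dd2-infected red cells (2.5% hematocrit) grew 72 h with compound, 29 uM top final concentration.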
Potency is read from the fitted curve at half-maximal effect; tags tell the direction and shape of the fitted curve.

Row | SMILES | Potency | outcome
1 | COc1cccc(C(=O)N2CCc3nc(-c4ccccc4)nc(-c4ccc(Cl)cc4)c3C2)c1 | inconclusive: 11.2 µM [inhibitor, single point] | –
2 | COc1ccc(-c2noc(CC3CCN(C(=O)Cc4ccc(OC)c(Cl)c4)CC3)n2)cc1 | inconclusive: 10 µM [inhibitor, single point] | –
3 | COc1ccc(C2CC(=O)N3CN(C4CCCCC4)CSC3=C2C#N)cc1 (configuration not stated) | inconclusive: 11.2 µM [inhibitor, partial curve, poor fit] | –
4 | O=C1Nc2ccc(-c3cccc(C(F)(F)F)c3)cc2C(=O)N2CCN(C(=O)c3ccco3)C[C@@H]12 | inactive | –
5 | Cc1cnc(CCNS(=O)(=O)Cc2ccccc2F)n1Cc1ccccc1 | inconclusive: 1 µM [inhibitor, partial curve, poor fit] | –
6 | COCCN1CCN(C[C@@H]2C=C(C)[C@H](Cc3nnc(-c4ccc(OC)cc4)o3)C[C@H]2C(C)C)CC1 | inconclusive: 10 µM [inhibitor, single point] | –
7 | c1ccc(CCCN[C@H]2CO[C@H]3[C@@H]2OC[C@@H]3n2cc(-c3ccccc3)nn2)cc1 | inactive | –
8 | Cc1ccc(-c2cn(CC3CCCN(c4cc(C)nc(N)n4)C3)nn2)cc1 (configuration not stated) | inconclusive: 10 µM [inhibitor, single point] | –
9 | CCc1nc2cc(N3CCCC(C(=O)NC4CCCC4)C3)cnc2nc1CC (configuration not stated) | inconclusive: 2.24 µM [inhibitor, single point] | –
10 | COc1ccccc1-c1nnc2n1C(C(=O)NC(C)C)CC2 (configuration not stated) | inactive | –
11 | O=C(NCCC1=CCCCC1)c1ccc2c(c1)N(Cc1ccccc1)C(=O)c1ccccc1S2(=O)=O | inconclusive: 11.2 µM [inhibitor, single point] | –
12 | Cn1c(CN2CCCCC2)nnc1C1CCCN(C(=O)c2cccnc2)C1 (configuration not stated) | inactive | –
13 | COc1ccc(Cl)cc1-c1ccc2c(c1)C(=O)N1CC[C@H](NC(=O)c3cccs3)[C@H]1C(=O)N2 | active: 7.94 µM | –
14 | N#Cc1cccc(-c2cn3c(n2)N(C(=O)c2ccccc2)CCC3)c1 | inconclusive: 6.31 µM [inhibitor, partial curve, poor fit] | –
15 | COc1ccc(NC(=O)O[C@@H]2CO[C@H]3[C@@H]2OC[C@@H]3n2nnnc2SCc2ccco2)cc1 | inconclusive: 12.6 µM [inhibitor, single point] | –
16 | COc1ccc(C)cc1NC(=O)CN1C(=O)NC2(CCC(C(C)(C)C)CC2)C1=O (configuration not stated) | inactive | –
17 | Cc1nccn1C1(C(=O)O)CCN(Cc2ccc(-c3ccn[nH]3)o2)CC1 | inconclusive: 0.1 µM [inhibitor, full curve, poor fit] | –
18 | Cc1cc2nc3n(c(=O)c2n1CC(=O)Nc1ccc2c(c1)OCCO2)CCCC3 | inconclusive: 2.24 µM [inhibitor, single point] | –
19 | O=C1NC2(CCN(Cc3ccsc3)C2)Oc2ccccc21 (configuration not stated) | inconclusive: 31.6 µM [inhibitor, single point] | –
20 | Cc1ccc(SCC(=O)Nc2ccc3oc(-c4cccc(C)c4)nc3c2)cc1 | inactive | –
21 | O=c1c2nc(Nc3ccc(C(F)(F)F)cc3)ccc2ncn1C1CC1 | inconclusive: 31.6 µM [inhibitor, single point] | –

Row | SMILES | Potency | outcome
22 | O=C(c1ccccc1-c1ccccc1)N1CCC(c2ncc[nH]2)CC1 | inconclusive: 2 µM [inhibitor, full curve, poor fit] | –
23 | CC1=C[C@@H](CNC(=O)c2ccccc2)[C@H](C(C)C)C[C@H]1Cc1nc2ccccc2n1C | inconclusive: 14.1 µM [inhibitor, single point] | –
24 | COc1cccc(-c2nnnn2[C@H]2CO[C@H]3[C@@H]2OC[C@@H]3NC(=O)c2ccc(C(F)(F)F)cc2)c1 | inconclusive: 12.6 µM [inhibitor, partial curve] | –
25 | Cc1ccc(C(=O)N2CCCC3(C2)C(=NC2CCCCC2)NC(=O)N3c2cccnc2)cc1 (configuration not stated) | inactive | –
26 | COCc1ccc2c(c1)c(OC(C)(C)C(=O)NCC1CCOCC1)nn2CCC(C)C | inconclusive: 31.6 µM [inhibitor, single point] | –
27 | Cn1cc([C@@H](NC(=O)c2cc(=O)n(-c3ccccc3)[nH]2)C2CC(O)C2)cn1 (some centres not stated) | inconclusive: 11.2 µM [inhibitor, single point] | –
28 | COCC1CN(C)CC12CCN(C(=O)CCc1cccc(OC)c1)CC2 (configuration not stated) | inconclusive: 8.91 µM [inhibitor, partial curve] | –
29 | COc1cc2c(cc1Oc1ccccc1)NC(=O)C21CCN(c2ccnc(C)n2)CC1 | inconclusive: 4.47 µM [inhibitor, single point] | –
30 | COCCCn1c(=N)c(C(=O)NC2CCCC2)cc2c(=O)n3ccccc3nc21 | inconclusive: 17.8 µM [inhibitor, single point] | –
31 | O=C(CC1=CCCCC1)N1CCC2(CC1)CC(O)CCO2 (configuration not stated) | inactive | –
32 | COc1ccccc1NC(=O)CSc1ncc2c(n1)-c1cc(Cl)ccc1N(C)S2(=O)=O | inactive | –
33 | CNC(=O)[C@H]1C[C@H](Oc2ccccc2)CN1S(=O)(=O)Cc1ccccc1 | inactive | –
34 | CC(=O)c1cccc(NC(=O)Cn2ccn3nc(-c4ccccc4)c(CO)c3c2=O)c1 | inactive | –
35 | Cc1cccnc1CNC[C@H]1O[C@@H]2C[C@@H](CC(=O)NC(C)C)O[C@@H]2[C@@H]1O | inactive | –
36 | COC[C@@H]1CN(c2cnccn2)C[C@H]1C(=O)Nc1cccnc1 | inactive | –
37 | Cc1cnc(C(=O)N2CCC(c3noc(-c4cccnc4)n3)C2)cn1 (configuration not stated) | – | inactive [at 5.79 µM]
38 | O=C(Nc1cnc(-c2ccc(Cl)cc2)nc1)c1cccs1 | inconclusive: 0.398 µM [inhibitor, partial curve, poor fit] | –
39 | CCc1nc2c(c(-c3ccc(OC)cc3)n1)CCN([S+](=O)([O-])c1ccccc1)CC2 | inconclusive: 17.8 µM [inhibitor, single point] | –
40 | O=C(Nc1cccc(Cl)c1)[C@@H]1COCC(=O)N1Cc1ccccc1 | inactive | –
41 | CN1CCCCCCN(S(=O)(=O)c2ccc3c(c2)CCC3)[C@H]2CCC[C@H]2C1=O | inconclusive: 6.31 µM [inhibitor, partial curve, poor fit] | –
42 | COc1ccc(-c2cc3c(=O)n(CCNC(=O)c4ccc(C)c(F)c4)ccn3n2)cc1 | inconclusive: 0.501 µM [inhibitor, full curve, poor fit] | –
